# Laboratory results taken from PubChem BioAssay AID902 (National Center for Advancing Translational Sciences (NCATS), 2007).
# Out of some 130,000 compounds screened, about 1,900 (1.5%) were called active. The inconclusive results got no clear call from the source; some entries with a clear call stand among them for comparison. Calls follow the shape of the dose curve; as a rule, active = well fitted cell-killing curve with a large enough effect; inconclusive = small, poorly fitted or top-dose-only effect; inactive = no such curve, though single readings can be large or run the other way. Potencies beside an inconclusive call are fits to weak or partial responses and may not hold up.
# Assay: qHTS Screen for Compounds that Selectively Target Cancer Cells with p53 Mutations: Cytotoxicity of p53ts Cells at the Nonpermissive Temperature; also: nearly all actives have a fitted effect of over 55% in size
# Details: H1299-p53A138V viability at 39C, ATP luminescence, 24 h; activity change, negative = cell killing: at 46.1 µM (top of the series)
# % is scaled to controls: 0 for no effect and ±100 for the full control effect; potency is read from the fitted curve at half-maximal effect; tags tell the direction and shape of the fitted curve.
Structure (SMILES),Potency,"activity change, negative = cell killing"
CCOC(=O)c1cc(-c2ccc(C)cc2)n(CC(=O)Nc2ccc(OC)cc2OC)c1C,"inconclusive: 15.8 µM [cytotoxic, partial curve]",–
Cc1ccc(NC(=O)CSc2nccn2C2CCCC2)cc1Cl,–,inconclusive: -38.2% [cytotoxic]
N#C/C(=C\c1ccc(-c2cccc(Cl)c2)o1)C(=O)Nc1cccc(C(F)(F)F)c1,active: 12.6 µM,–
CCN(CC)CCCNC(CC(=O)O)C(=O)O (configuration not stated),–,inactive: -5.74%
CCCCCn1c(=O)[nH]c2cc(C(=O)NCc3ccccc3)ccc2c1=O,"inconclusive: 31.6 µM [cytotoxic, single point]",–
CCN(CC)S(=O)(=O)c1ccc2c(c1)N(CC(=O)NCCCN1CCN(c3cc(Cl)ccc3C)CC1)C(=O)CO2,"inconclusive: 20 µM [cytotoxic, single point]",–
CCCN(CCC)S(=O)(=O)c1ccc(C(=O)Nc2nnc(CSC)o2)cc1,"inconclusive: 10 µM [cytotoxic, partial curve]",–
CN(C)CCN(Cc1ccco1)C(=O)c1oc2ccccc2c1NC(=O)c1cccc(F)c1,active: 10 µM,–
CCOCCCNC(=O)c1ccc(-n2c(-c3ccccc3)cc3c2CCCCC3)cc1,"inconclusive: 4.47 µM [cytotoxic, single point]",–
COc1ccc(Cn2c(=O)c3ccccc3n3c(-c4cccc(OC)c4OC)nnc23)cc1,–,inactive: 3.14%
Cc1ccc(CNC(=O)c2cc3c(s2)-c2c(C)cccc2OC3)cc1,"inconclusive: 31.6 µM [cytotoxic, single point]",–
CCOC(=O)c1c(NC(C)=O)c2c3c(sc2n1Cc1nc(-c2ccccc2Cl)oc1C)CCCC3,–,inactive: -18.5%
COc1ccccc1NC(=O)c1sc2nc3c(cc2c1N)CN(Cc1ccccc1)CC3,"inconclusive: 31.6 µM [cytotoxic, single point]",–
CCOC(=O)C1=C(C)Nc2ccccc2N=C1NC(=O)Cc1ccc(OC)cc1,"inconclusive: 0.0224 µM [cytotoxic, full curve, poor fit]",–
Cc1cc(F)ccc1NC(=O)CS(=O)(=O)c1cccc2nsnc12,active: 0.0398 µM,–
COc1ccc(CNc2nc(SCc3ccccc3Cl)nc3ccccc23)cc1,"inconclusive: 31.6 µM [cytotoxic, single point]",–
COc1ccc(NC(=O)CCc2nnc3n(Cc4ccc(C)cc4)c(=O)c4ccccc4n23)cc1,"inconclusive: 12.6 µM [cytotoxic, partial curve]",–
CCc1ccc(N(CC)c2ncnc3nc[nH]c23)cc1,"inconclusive: 20 µM [cytotoxic, single point]",–
CN1CCN(c2ncc3nc(CCc4ccccc4)c(=O)n(Cc4cccs4)c3n2)CC1,"inconclusive: 31.6 µM [cytotoxic, single point]",–
COc1ccc(CCNC(=O)c2ccc3c(c2)ncn3-c2ccc(C(C)C)cc2)cc1OC,"inconclusive: 20 µM [cytotoxic, single point]",–
Cc1cc(N)n2ncc(-c3ccccc3)c2n1,active: 10 µM,–

Structure (SMILES),Potency,"activity change, negative = cell killing"
CCC(=O)N1c2ccc(S(=O)(=O)CCC(=O)N3CCN(c4ccccc4)CC3)cc2CC1C (configuration not stated),–,inactive: -3.53%
c1cn2c(NC3CCCC3)c(-c3ccc(N4CCOCC4)cc3)nc2cn1,active: 15.8 µM,–
CC(=O)OC[C@H]1O[C@@H](O/N=C(\C)CCN2CCc3nc(-c4ccccc4)c(-c4ccccc4)cc3C2)[C@H](OC(C)=O)[C@@H](OC(C)=O)[C@H]1OC(C)=O,–,inactive: 12% [at 9.22 µM]
CCOC(=O)N1CCC(c2cc(=O)n3[nH]c(C)c(-c4ccc(F)cc4)c3n2)CC1,"inconclusive: 12.6 µM [cytotoxic, single point]",–
Cc1cc(C)cc(NC(=O)c2cc(S(=O)(=O)N3CCc4ccccc43)cn2C)c1,"inconclusive: 31.6 µM [cytotoxic, single point]",–
CCCCC(Sc1nc2cc3c(cc2c(=O)n1CCCC(=O)NCc1ccc2c(c1)OCO2)OCO3)C(=O)OCC (configuration not stated),"inconclusive: 3.98 µM [cytotoxic, full curve, poor fit]",–
CC1CCN(C(=O)CSc2nc3ccccc3nc2Cc2ccccc2)CC1,–,inactive: -10.4%
CC(C)C(=O)Nc1ccc2nc(SCC(=O)N3CCc4ccccc43)sc2c1,–,inactive: -24.2%
CCn1c(=O)cc(OCC(=O)N2CCN(c3cccc(C)c3C)CC2)c2ccccc21,"inconclusive: 11.2 µM [cytotoxic, partial curve, poor fit]",–
Cc1ccc(CNC(=O)C(C)n2nc(C)c3sc4ccccc4c3c2=O)cc1 (configuration not stated),"inconclusive: 15.8 µM [cytotoxic, partial curve]",–
CCOc1ccc(NC(=O)c2cc(C)nc3c2c(C)nn3-c2ccc(C)cc2)cc1,"inconclusive: 20 µM [cytotoxic, single point]",–
CCOc1cccc(CC(=O)N2CCc3c([nH]c4ccc(OC)cc34)C2c2ccc(F)cc2)c1OCC (configuration not stated),–,inactive: -9.04%
COc1ccccc1C(=O)C1Nc2ccccc2-c2nnc(SC)nc2O1 (configuration not stated),"inconclusive: 0.794 µM [cytotoxic, full curve, poor fit]",–
CN1CCN(Cc2c(O)ccc3cc(-c4ccc(Cl)cc4)c(=O)oc23)CC1,"inconclusive: 10 µM [cytotoxic, partial curve]",–
O=C(Nc1ccc2nc(-c3ccco3)[nH]c2c1)c1ccco1,active: 15.8 µM,–
O=C(NCCc1c[nH]c2ccccc12)c1cnc2n(c1=O)CCS2,"inconclusive: 0.316 µM [cytotoxic, full curve, poor fit]",–
CCCN1C(=O)C(O)(CC(=O)c2ccc(C(C)C)cc2)c2ccccc21 (configuration not stated),"inconclusive: 10 µM [cytotoxic, partial curve]",–
Cc1ccc2nc(-c3ccc(F)cc3)c(NC(C)(C)CC(C)(C)C)n2c1,"inconclusive: 15.8 µM [cytotoxic, single point]",–
Cc1cc(C)c2nc(N3CCCC(C(=O)NCc4ccccc4F)C3)sc2c1 (configuration not stated),"inconclusive: 12.6 µM [cytotoxic, partial curve]",–
C/C(=N\NC(=O)c1ccccc1)c1cc2cc([N+](=O)[O-])ccc2oc1=O,–,inactive: 12.4%
NC(=O)C1=CN([C@@H]2O[C@@H](COP(=O)(O)OP(=O)(O)OC[C@@H]3O[C@H](n4cnc5c(N)ncnc54)[C@@H](OP(=O)(O)O)[C@@H]3O)[C@H](O)[C@@H]2O)C=CC1,–,inactive: 33.2%
